# Screen size: about 310,000 compounds; about 2,200 (0.71%) showed an effect of 50% or more. The effect is printed as a negative number. Some of the results follow.
# Biological target: human ether-à-go-go-related gene (hERG) potassium channel (human, UniProt Q12809)
# Assay: primary screen, population patch clamp on CHO cells stably expressing hERG
# Chain of human ether-à-go-go-related gene (hERG) potassium channel (Q12809 whole entry, looked up): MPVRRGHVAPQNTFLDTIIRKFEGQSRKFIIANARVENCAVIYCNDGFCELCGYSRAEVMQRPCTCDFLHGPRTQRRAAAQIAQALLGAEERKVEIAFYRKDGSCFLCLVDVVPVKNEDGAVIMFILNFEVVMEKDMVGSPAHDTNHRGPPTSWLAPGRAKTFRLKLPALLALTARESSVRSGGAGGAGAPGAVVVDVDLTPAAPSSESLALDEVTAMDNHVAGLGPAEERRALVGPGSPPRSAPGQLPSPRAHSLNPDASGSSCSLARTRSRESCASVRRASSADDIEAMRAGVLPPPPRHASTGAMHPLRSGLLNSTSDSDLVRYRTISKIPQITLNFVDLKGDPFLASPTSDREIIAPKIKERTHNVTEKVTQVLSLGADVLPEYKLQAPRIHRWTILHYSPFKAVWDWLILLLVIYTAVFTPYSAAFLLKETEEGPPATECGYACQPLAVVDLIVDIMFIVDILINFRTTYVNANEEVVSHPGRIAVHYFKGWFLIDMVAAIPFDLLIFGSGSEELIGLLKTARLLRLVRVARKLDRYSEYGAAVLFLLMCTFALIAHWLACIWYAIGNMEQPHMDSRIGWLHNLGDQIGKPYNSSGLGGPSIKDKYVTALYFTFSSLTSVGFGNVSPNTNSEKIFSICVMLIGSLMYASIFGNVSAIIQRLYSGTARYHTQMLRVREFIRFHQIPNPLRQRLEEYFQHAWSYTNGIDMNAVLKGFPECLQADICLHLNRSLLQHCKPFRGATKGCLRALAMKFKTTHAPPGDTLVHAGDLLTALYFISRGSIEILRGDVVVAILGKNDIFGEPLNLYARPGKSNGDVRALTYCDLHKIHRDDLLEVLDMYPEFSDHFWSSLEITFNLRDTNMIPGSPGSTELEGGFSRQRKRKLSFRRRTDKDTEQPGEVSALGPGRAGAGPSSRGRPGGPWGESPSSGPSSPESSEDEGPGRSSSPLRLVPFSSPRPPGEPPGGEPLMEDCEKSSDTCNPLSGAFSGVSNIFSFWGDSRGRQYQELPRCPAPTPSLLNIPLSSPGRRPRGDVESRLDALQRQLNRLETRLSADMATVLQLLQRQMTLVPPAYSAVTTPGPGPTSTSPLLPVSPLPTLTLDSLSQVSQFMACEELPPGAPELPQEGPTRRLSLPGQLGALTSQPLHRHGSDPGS
row,Compound,"hERG current change (%, negative = inhibition) at 1uM"
1,COc1ccc(CCNC(=O)CCCN2C(=O)C(c3ccccc3)Oc3cccnc32)cc1OC (centres unmarked),5.91%
2,O=C(/C=N/O)NCc1ccncc1,16.4%
3,CN(Cc1ccccc1)C(=C(Cl)Cl)/C(=C1/NCCN1C)[N+](=O)[O-],15.2%
4,O=c1[nH][nH]c2cc(=O)n(-c3cccc(C(F)(F)F)c3)nc12,-3.32%
5,COC(=O)c1ccc(NC(=O)CSc2nncn2C)cc1,12.6%
6,CN1CCN(C(c2ccc(F)cc2)c2nnnn2Cc2cccs2)CC1.Cl (centres unmarked),3.46%
7,O=c1cccc2n1C[C@H]1C[C@@H]2CN2CCCC[C@@H]12,6.46%
8,COc1cc2[nH]c(=O)n(CCCC(=O)N3CC=C(c4ccccc4)CC3)c(=O)c2cc1OC,2.2%
9,Cn1nc(CSc2ccccc2)c(C=O)c1Cl,9.69%
10,CCOc1cccc(C(=O)Nc2cccc(-c3nc4ncccc4o3)c2C)c1,3.28%
11,CN(C)CC/C=C1\c2ccc(F)cc2Sc2cc(F)c(Cl)cc21.Cl,13.9%
12,COC(=O)c1cc(=O)c2c([N+](=O)[O-])ccc(OC)c2o1,-1.55%
13,Cc1cc(C)cc(C(=O)NC(CC(N)=O)c2ccc(NC3CCCCCC3)c([N+](=O)[O-])c2)c1 (centres unmarked),7.44%
14,CCCn1c(CN2CCN(C(=O)OCC)CC2)nc2cc(NC(=O)CC)ccc21,14.6%
15,Cn1c(CCN2CCCCC2)nc2cc(NC(=O)COc3ccccc3)ccc21,-51.9%
16,Cc1ccc(C(C)C)c(OC(=O)/C=C/c2ccccc2)c1,-0.885%
17,C=C(C)COc1ccc(-c2[nH]ncc2-c2ccc(OC)c(OC)c2)c(O)c1,2.3%
18,COc1ccc(C(O)(C2CCCCC2)C(CN2CCOCC2)c2ccccc2)cc1.Cl (centres unmarked),10.6%
19,COc1cccc(Cn2nnc(C(=O)NCc3ccc4c(c3)OCO4)c2N)c1,-2.42%
20,Cl.NC(N)=Nc1nc(-c2ccccc2)c2cc(Cl)ccc2n1,-15.6%
21,CCCCN(CCCC)CC1OCc2ccccc2CO1,-0.951%
22,O=C(Cn1nc(-c2ccc(F)cc2)ccc1=O)Nc1ccc(C(=O)NC2CC2)cc1,2.4%

row,Compound,"hERG current change (%, negative = inhibition) at 1uM"
1,CCc1nnc(NC(=O)C2Cc3ccccc3CN2S(=O)(=O)c2cccs2)s1 (centres unmarked),16.3%
2,CN(C(=O)CN(CCO)CC(=O)N(C)C(C)(C)Cc1ccccc1)C(C)(C)Cc1ccccc1,7.94%
3,Cc1ccc(NC(=S)Nn2cnnc2)cc1,10.7%
4,CCCOc1ccc(C(CC(=O)O)NS(=O)(=O)c2ccc(NC(C)=O)cc2)cc1 (centres unmarked),9.29%
5,O=C(OCC(=O)N1CCOCC1)c1ccccc1SCC(=O)N1CCCC1,5.78%
6,CCc1nnc(NC(=O)c2ccc(N3C(=O)CCC3=O)cc2)s1,11.3%
7,CC(C)NC(C)Cc1ccc(I)cc1.Cl (centres unmarked),-11.4%
8,O=C(CSc1n[nH]c(=O)[nH]c1=O)c1ccccc1[N+](=O)[O-],9.33%
9,CC(=O)N(C)c1ccc(NC(=O)Nc2cccc3ccccc23)cc1,7.56%
10,Cc1ccc(Nc2nc(-c3ccc(C)cc3)c(CC(=O)O)s2)cc1,8.45%
11,COc1ccc(CC(=O)O/N=C(\N)c2ccccc2)cc1OC,9.23%
12,COCCCNC(=S)NNC(=O)c1ccc(S(=O)(=O)N2CCC(C)CC2)cc1,18.5%
13,COc1ccc(NC(=O)COC(=O)c2ccc(-n3cnnn3)cc2)cc1Cl,12.5%
14,COC(=O)CN1C(=O)[C@H]2[C@@H](c3ccc(C)o3)N3C(=O)CN(Cc4ccccc4)C(=O)[C@@]3(Cc3ccccc3)[C@H]2C1=O,0.0835%
15,CS(=O)(=O)NCCNC(=O)c1cc(OCC(F)(F)F)ccc1OCC(F)(F)F,3.72%
16,Cc1ccc(-c2nnc(Nc3ccc(C(=O)N(C)C)cc3)c3ccccc23)cc1S(=O)(=O)NCC1CCCO1 (centres unmarked),-3.87%
17,COc1ccc(/C=N/n2cnc3c([nH]c4ccccc43)c2=O)cc1CO,6.11%
18,CCOc1cc(C(=S)N2CCN(C)CC2)ccc1OCC(=O)N1CCOCC1,10.1%
19,CN(C)c1ccc(CNCc2cccnc2)cc1,11%
20,CN(C)CCCNC(=S)Nc1ccc(Br)cc1,10.3%
21,CCOc1ccc(C2CC(=O)N(Nc3ccc([N+](=O)[O-])cc3[N+](=O)[O-])C2=O)cc1 (centres unmarked),-22.6%
22,CCOC(=O)N1CCC(N2CC34C=CC(O3)C(C(=O)Nc3ccc(OCC)cc3)C4C2=O)CC1 (centres unmarked),2.17%

row,Compound,"hERG current change (%, negative = inhibition) at 1uM"
1,CC1CCN(CCCCOc2ccc(Cl)cc2)CC1.O=C(O)C(=O)O,-32.6%
2,Cn1c(Oc2ccc3c(c2)OCO3)nc2c1c(=O)n(Cc1ccccc1)c(=O)n2C,7.68%
3,CC(C)(C)OC(=O)NCCC(=O)N/N=C/c1cccc2cccnc12,11.4%
4,CCCCOP(=O)(c1ccc(N(C)C)cc1)C(O)c1ccc(C(C)C)cc1 (centres unmarked),12.1%
5,Cc1cc(Cl)ccc1OCCCC(=O)NCCc1nnc2ccccn12,2.77%
6,CCn1ncc(C2=NOC(C(=O)Nc3cnn(C45CC6CC(CC(C6)C4)C5)c3)C2)c1C (centres unmarked),3.56%
7,CC1(C)CC(=O)c2cnc(NC(=O)Cc3ccc(Cl)cc3)nc2C1,9.19%
8,Cc1ccc(CNS(=O)(=O)c2c(C(=O)N3CCCCCC3)c(C)n(C)c2C)cc1,13%
9,CCOC(=O)c1ccc(NC(=O)CSc2nnc(CNc3ccc(OC)cc3)n2C)cc1,10.2%
10,COc1ccc(C2CC(c3ccc(Cl)cc3Cl)Nc3nc(N)nn32)cc1OC (centres unmarked),-0.698%
11,Cc1nn(CCCC(=O)Nc2cnn(Cc3ccc(F)cc3)c2)c(C)c1[N+](=O)[O-],11.5%
12,Cc1ccnc2nc(C(=O)OC(C)C(=O)NCc3ccccc3)nn12 (centres unmarked),10.8%
13,COc1ccc(C)cc1NS(=O)(=O)c1cccc2nonc12,2.58%
14,C/C(CCN1CCCCc2nc(C)c(C)cc21)=N\O[C@@H](C)CN1CCCCc2nc(C)c(C)cc21,-1.01%
15,COc1ccc(OC)c(C(O)CNC(=O)CN)c1.Cl (centres unmarked),13.1%
16,Cc1ccc(-c2noc(CSc3nnc(-c4ccccc4)n3C)n2)cc1,9.14%
17,COC(=O)CCCC1=CC2=CC(=O)C(C)(OC(=O)c3cccs3)C(=O)C2=CN1CC(C)C (centres unmarked),2.76%
18,Cc1cc2occ(CC(=O)NNC(=O)c3ccccc3)c2cc1C,12.2%
19,CCNc1nc(SCC(=O)Nc2ccccc2)nc(N2CCOCC2)n1,13.1%
20,Cc1cc([N+](=O)[O-])cnc1N1CCOCC1,8.64%
21,CCNS(=O)(=O)c1ccc(CCC(=O)NCc2ccc3c(c2)OCO3)cc1,8.39%
22,COC(=O)COc1ccc(NC(=O)C(c2ccccc2)c2ccccc2)cc1,6.63%

row,Compound,"hERG current change (%, negative = inhibition) at 1uM"
1,Cc1sc2nc(CSCC(=O)Nc3ccccc3C#N)[nH]c(=O)c2c1C,10.2%
2,CS(=O)(=O)N(CCc1ccccc1)CC(=O)N1CCN(c2ccc(F)cc2)CC1,-2.09%
3,Cc1occc1C(=O)NNS(=O)(=O)c1ccc(Cl)cc1,11.3%
4,COC(=O)C(C)Sc1nc2ccsc2c(=O)n1Cc1ccccc1 (centres unmarked),1.03%
5,CC(O)CNC(=O)Cc1cc(=O)[nH]c(=O)[nH]1 (centres unmarked),8.83%
6,CC(C)Oc1ccccc1/C=N/NC(=O)c1ccccc1Cl,2.32%
7,O=C(Cn1ncc2c([nH]c3ccccc32)c1=O)NCCc1ccccc1,6.68%
8,CCN(C(=O)COC(=O)c1c(C)nsc1NC)c1ccccc1,6.44%
9,Cc1cc(C(F)(F)F)n2ncc(-c3ccc(F)cc3)c2n1,14.1%
10,Cn1cc(C(=O)N2CCCC(Nc3ccc(F)cc3)C2)c2ccccc21 (centres unmarked),10.4%
11,COc1cccc(C(=O)Nc2ccc(S(=O)(=O)N3CCCCC3)cc2)c1OC,10.3%
12,CCS(=O)(=O)N1CCN=C1SCc1cccnc1,-5.74%
13,Cc1cccc(-n2ncc3c2CCCC3NC(=O)CN2CCOC2=O)c1C (centres unmarked),14.9%
14,COc1cc(C(=O)NCc2nnc(SCC(=O)Nc3cc(C)on3)o2)cc(OC)c1OC,8.67%
15,Cc1ccc(CC(=O)N2CC(C)OC(C)C2)cc1 (centres unmarked),12.8%
16,Cc1ccc(S(=O)(=O)NCC2CCC(C(=O)NCCCN3CCOCC3)CC2)cc1 (centres unmarked),15.4%
17,Cc1ccc(C2C3=C(CC(C)(C)CC3=O)Nc3[nH]c(=S)[nH]c(=O)c32)cc1 (centres unmarked),16.1%
18,Cc1sc(NC(=O)CN(C)C2CCCCC2)nc1-c1ccc2c(c1)CCN2S(=O)(=O)c1ccccc1,14%
19,CC(C)(C)C(=O)/C=c1\s/c(=C\c2ccc(-c3ccc([N+](=O)[O-])cc3)o2)c(=O)n1CC(=O)NC(N)=O,10.6%
20,COc1ccc(N2CCN(C(=O)CSc3nc4[nH]ncc4c(=O)n3-c3cccc4ccccc34)CC2)cc1,7.98%

# From article PMC4336329 (PLoS ONE, 2015)
